# PubChem BioAssay (Tox21)
# “And” between values parts separate entries of the source, which are not always exact repeats. Identical values can stand only once. Inconclusive results, whose numbers are uncertain, are shown with a selection of clear calls. For some assays here: Potencies of inconclusive entries are doubtful fits and often do not repeat. The source holds several records for some structures; these can differ, active in one and inactive in another. The source made the active and inactive calls. Unless noted, calls come from the whole dose curve; as a rule, active = well fitted curve in the direction sought with a large enough effect in the repeat runs; inconclusive = weak or mixed curves; inactive = no such curve, though single readings can be large; an effect the other way counts as inactive or inconclusive.
# How the values were obtained:
# [1] = molecular target: Nuclear receptor subfamily 1 group I member 3 (Homo sapiens) (UniProt Q14994); test: qHTS assay to identify small molecule agonists of the constitutive androstane receptor (CAR) signaling pathway (AID 1224839); note: nearly all actives have a fitted effect of over 15% in size;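 for activation: HepG2 cells stably carrying human CAR and a CYP2B6 luciferase reporter; % is set by controls: 0 for no effect and ±100 for the full control effect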
# Summary of the method: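 HepG2 cells stably expressing hCAR and a CYP2B6-2.2kb luciferase reporter were treated with compounds at 15 concentrations plus 0.75 uM PK11195 (final) for 24 h at 37 C; luminescence was read after ONE-Glo addition.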
# [2] = qHTS assay to identify small molecule antagonists of the estrogen related receptor signaling pathway with the pleiotropic PPARgamma coactivator (PGC) from Tox21 10K library - cell viability counter screen (AID 1224840; active = well fitted cell-killing curve with a large enough effect in the repeat runs, not every such curve was filed as active; inconclusive = weak or mixed curves, or effect the other way; inactive = no such curve, though single readings can be large or run the other way; note: nearly all actives have a fitted effect of over 40% in size)
# Summary of the method: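 PGC/ERR cells were seeded at 2,000 cells/well and left 6 hours at 37 C/5% CO2 before pin-tool addition of compounds in DMSO. After 17.5 hours at 37 C, CellTiter-Fluor was added and fluorescence read 30 minutes later.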
# [3] = molecular target: Thyrotropin receptor (Homo sapiens) (UniProt P16473); test: qHTS assay to identify small molecule agonists of the thyroid stimulating hormone receptor (TSHR) signaling pathway (AID 1224843; calls by dose curve; note: nearly all actives have a fitted effect of over 45% in size; for activation: % is set by controls: 0 for no effect and ±100 for the full control effect); details: TSHR-HEK293 cells, cAMP HTRF, agonist mode, 30 min; activation: at 92.4 µM (top of the series) unless noted
# Summary of the method: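 Steps: seed 800 TSHR-HEK293 cells per well; add test compound and hold 30 min at ambient temperature; dispense cAMP-d2 then anti-cAMP cryptate; incubate 1 h at ambient; measure fluorescence intensity.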
# [4] = qHTS assay to identify small molecule agonists of H2AX (AID 1224845; active = well fitted activation curve with a large enough effect in the signal ratio in the repeat runs, not every such curve was filed as active; inconclusive = weak or mixed curves; the % refers to the signal ratio; for activation (H2AX phosphorylation): % is set by controls: 0 for no effect and ±100 for the full control effect); details: CHO-K1 phospho-H2AX Ser139 HTRF, 3 h; activation (H2AX phosphorylation): at 154 µM (top of the series) unless noted
# Summary of the method: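 Wild-type CHO-K1 cells, plated overnight, exposed 3hr at 37C to 15 concentrations (0.76% DMSO final). Lysed, then HTRF anti-pH2AX (S139) cryptate and anti-H2AX-d2 antibodies, 24 hr room temperature; 665/620 nm emission read.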
# [5] = qHTS RealTime-Glo MT Cell Viability Assay in HepG2 cells - 24 hour (AID 1224867); note: nearly all actives have a fitted effect of over 50% in size
# Summary of the method: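 Cells + NanoLuc/prosubstrate dispensed (600 cells/well) → 5 h at 37 C/5% CO2 → compounds in DMSO transferred → 40 h incubation at 37 C, luminescence read at 0, 8, 16, 24, 32, 40 h.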
# [6] = qHTS RealTime-Glo MT Cell Viability Assay in HEK293 cells - 32 hour (AID 1224868); note: nearly all actives have a fitted effect of over 50% in size
# Summary of the method: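 Tox21 10K qHTS, HEK293, 600 cells/well, RealTime-Glo reagent co-dispensed with cells; 5 h preincubation, compound by pintool, 37 C, luminescence at 0–40 h.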
# [7] = qHTS assay to identify small molecule antagonists of the constitutive androstane receptor (CAR) signaling pathway - cell viability counter screen (AID 1224837); note: nearly all actives have a fitted effect of over 45% in size
# Summary of the method: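 HepG2 cells stably expressing hCAR and a CYP2B6-2.2kb reporter were plated and pre-incubated 4 hr at 37 C/5% CO2, then given compounds at 15 concentrations plus 50 nM CITCO (final). After 23 hr, viability was read by CellTiter-Fluor fluorescence.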
# [8] = qHTS assay to identify small molecule agonists of the hypoxia (HIF-1) signaling pathway - cell viability counter screen (AID 1224844; calls by dose curve; note: nearly all actives have a fitted effect of over 50% in size)
# Summary of the method: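 HRE-bla ME-180 cells in medium with 0.5% dialyzed FBS were preincubated 5 hrs at 37C, exposed to compounds for 17 hrs, then viability was read as CellTiter-Glo luminescence after 30 min at room temperature, in the reporter wells.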
# [9] = A CellTox Green Cytotoxicity Assay to monitor cytotoxicity in HEK293 cells - 0 hour (AID 1224869); note: nearly all actives have a fitted effect of over 50% in size
# Summary of the method: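 HEK293 cells premixed with CellTox Green dye were seeded at 600 cells/well and left 5 h at 37 C/5% CO2 before pin transfer of 23 nL compound in DMSO. Fluorescence from dye bound to dead-cell DNA was read during 40 h treatment.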
# [10] = qHTS assay to identify small molecule agonists of the hypoxia (HIF-1) signaling pathway (AID 1224846; active = well fitted activation curve with a large enough effect in the signal ratio in the repeat runs, not every such curve was filed as active; inconclusive = weak or mixed curves; the % refers to the signal ratio; for activation: % is set by controls: 0 for no effect and ±100 for the full control effect); details: HRE-bla ME-180 cells, beta-lactamase ratio, 17 h; activation: at 76.8 µM (top of the series) unless noted
# Summary of the method: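 HRE-bla ME-180 cells (beta-lactamase reporter under hypoxia response element) were plated at 2,000 cells/well in medium with 0.5% dialyzed FBS, rested 5 hrs, then given compounds in DMSO for 17 hrs at 37C, 5% CO2. Reporter induction was read with CCF4-AM FRET substrate.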
# [11] = qHTS assay to identify small molecule agonists of H2AX - cell viability counter screen (AID 1224847; calls by dose curve; note: nearly all actives have a fitted effect of over 30% in size)
# Summary of the method: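 Wild-type CHO-K1 cells (10% FBS medium) were plated overnight at 37C, exposed to compounds at 15 concentrations for 3 hr at 37C (0.76% DMSO final), and viability was read as CellTiter-Glo luminescence after 30 min at room temperature.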
# [12] = molecular target: Nuclear receptor subfamily 1 group I member 3 (Homo sapiens) (UniProt Q14994); test: qHTS assay to identify small molecule antagonists of the constitutive androstane receptor (CAR) signaling pathway (AID 1224838); note: nearly all actives have a fitted effect of over 40% in size
# Summary of the method: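 HepG2 cells stably co-transfected with hCAR and a CYP2B6-2.2kb luciferase reporter were seeded 4 h before compound addition at 15 concentrations. Cells were stimulated with 50 nM CITCO (final) for 24 h at 37 C; luciferase luminescence was then read.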
# [13] = qHTS assay to identify small molecule antagonists of the estrogen related receptor (ERR) signaling pathway from Tox21 library (AID 1224848); note: nearly all actives have a fitted effect of over 50% in size
# Summary of the method: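 Luminescent reporter read-out (ONE-Glo) from NTP's ERR cell line after 18 h treatment at 37 C with DMSO-dissolved Tox21 compounds; cells pre-plated 6 h beforehand at 2,000 per well.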
# Potency is the fitted concentration of half-maximal effect; tags give direction and shape of the fitted curve or compound fluorescence and quenching.
# Chain of UniProt Q14994 (Q14994 whole entry, looked up): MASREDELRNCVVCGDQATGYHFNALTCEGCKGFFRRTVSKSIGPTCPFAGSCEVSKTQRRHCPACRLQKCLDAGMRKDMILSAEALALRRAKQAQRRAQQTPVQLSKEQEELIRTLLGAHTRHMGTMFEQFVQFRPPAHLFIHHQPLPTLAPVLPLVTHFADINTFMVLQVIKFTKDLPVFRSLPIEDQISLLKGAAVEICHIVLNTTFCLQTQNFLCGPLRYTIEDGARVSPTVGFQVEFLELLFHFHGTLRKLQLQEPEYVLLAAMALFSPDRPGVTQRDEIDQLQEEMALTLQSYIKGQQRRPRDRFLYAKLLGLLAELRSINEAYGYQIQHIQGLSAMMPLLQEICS
# Chain of UniProt P16473 (P16473 whole entry, looked up): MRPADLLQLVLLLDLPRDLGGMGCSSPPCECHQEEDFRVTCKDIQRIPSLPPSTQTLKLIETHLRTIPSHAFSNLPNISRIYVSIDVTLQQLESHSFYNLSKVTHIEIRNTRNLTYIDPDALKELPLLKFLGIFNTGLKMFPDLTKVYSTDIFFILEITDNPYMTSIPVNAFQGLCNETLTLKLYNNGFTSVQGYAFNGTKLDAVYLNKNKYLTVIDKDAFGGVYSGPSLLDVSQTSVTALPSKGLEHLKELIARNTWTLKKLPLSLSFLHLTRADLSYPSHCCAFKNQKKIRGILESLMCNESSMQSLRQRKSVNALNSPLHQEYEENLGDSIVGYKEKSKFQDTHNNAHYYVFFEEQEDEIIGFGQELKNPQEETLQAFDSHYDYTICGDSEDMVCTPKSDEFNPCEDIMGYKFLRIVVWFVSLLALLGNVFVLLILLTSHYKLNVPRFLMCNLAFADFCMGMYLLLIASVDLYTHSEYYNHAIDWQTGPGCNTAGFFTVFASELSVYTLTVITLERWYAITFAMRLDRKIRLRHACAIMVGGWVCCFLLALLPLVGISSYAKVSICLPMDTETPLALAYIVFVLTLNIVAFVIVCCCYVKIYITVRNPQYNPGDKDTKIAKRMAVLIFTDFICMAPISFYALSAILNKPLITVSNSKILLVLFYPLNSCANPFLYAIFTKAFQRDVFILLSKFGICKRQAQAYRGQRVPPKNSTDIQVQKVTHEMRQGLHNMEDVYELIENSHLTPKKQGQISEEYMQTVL
smiles,measurement,setting,value
Clc1ccc2c(c1)CCc1cccnc1C2=C1CCNCC1,Potency,[1],inactive
same,Potency,[2],"inconclusive: 33.5 µM [cytotoxic, partial curve, poor fit]"
same,activation,[3],inconclusive: -16.3% [at 42.5 µM]
same,Potency,[4],"inconclusive: 61.9 µM [activator, single point]"
same,Potency,[5],"inconclusive: 21.3 µM [falling, partial curve, poor fit]"
same,Potency,[6],"inconclusive: 10.7 µM [cytotoxic, full curve, poor fit]"
CCCCOC(=O)/C=C\C(=O)OCCCC,Potency,[7],inactive
same,Potency,[8],inactive
CCCCCCCCCOC(=O)CCCCC(=O)OCCCCCCC,Potency,[7],inactive
same,Potency,[9],active: 43.6 µM
C=CC(=O)OCC(CO)(COC(=O)C=C)COC(=O)C=C,Potency,[7],active: 9.72 µM and active: 24.3 µM
same,Potency,[3],active: 6.13 µM and active: 9.69 µM
same,Potency,[8],active: 4.38 µM and active: 17.4 µM
same,Potency,[4],active: 14.2 µM
same,Potency,[10],"inconclusive: 9.81 µM [falling, full curve] and inconclusive: 17.4 µM [falling, full curve]"
same,Potency,[11],"inconclusive: 25.4 µM [rising, partial curve]"
same,Potency,[5],active: 11 µM and active: 12.3 µM
same,Potency,[6],"inconclusive: 9.77 µM [cytotoxic, full curve, poor fit]"
CCCCCCCCOc1ccc(C(=O)c2ccccc2)c(O)c1,Potency,[12],"inconclusive: 7.77 µM [inhibitor, full curve, poor fit] and inconclusive: 8.63 µM [inhibitor, full curve]"
same,Potency,[3],"inconclusive: 17.2 µM [inhibitor, full curve]"
same,Potency,[8],inactive
same,Potency,[4],inactive
C/C=C(\C)C#N,Potency,[1],inactive
O=C(OCc1ccccc1)c1ccccc1O,Potency,[7],inactive
same,Potency,[3],"inconclusive: 30.4 µM [inhibitor, partial curve]"
same,activation (H2AX phosphorylation),[4],inconclusive: 8.54%
CCCCCCCCCCCCCCCS(=O)(=O)Oc1ccccc1,Potency,[1],inactive
same,Potency,[2],inactive
same,activation,[3],inconclusive: -34.1% [at 42.5 µM]
same,Potency,[11],inactive
same,Potency,[6],inactive
C/C=C/C(=O)O,Potency,[7],inactive
same,Potency,[13],"inconclusive: 15.4 µM [inhibitor, single point]"
C=CC(=C)CCC=C(C)C,Potency,[7],"inconclusive: 61.1 µM [cytotoxic, partial curve]"
same,Potency,[4],"inconclusive: 127 µM [activator, single point]"
same,Potency,[11],"inconclusive: 127 µM [rising, single point]"
same,Potency,[5],inactive
O=C1OCCN1/N=C/c1ccc([N+](=O)[O-])o1,Potency,[7],inconclusive: 29.8 µM [cytotoxic]
same,Potency,[4],"inconclusive: 0.552 µM [rising, partial curve, poor fit]"
same,Potency,[11],inactive
CCCCCCCC#N,Potency,[7],inactive
same,Potency,[11],inactive
same,Potency,[13],inactive
same,Potency,[6],inactive
CCN(CC)CCNc1ccc(CO)c2sc3ccccc3c(=O)c12,Potency,[7],active: 7.5 µM
same,Potency,[8],active: 26.8 µM
same,Potency,[5],active: 23.9 µM
O=C(O)c1cc(O)c2c(c1)C(=O)c1cccc(O)c1C2=O,Potency,[7],"inconclusive: 19.9 µM [cytotoxic, partial curve, poor fit]"
same,Potency,[4],"inconclusive: 58.4 µM [falling, partial curve]"
same,Potency,[10],"inconclusive: 35.7 µM [falling, single point]"
same,Potency,[6],inactive
C[C@@H]1C[C@H]2O[C@@]3(O[C@@H]2C(C)(C)O)[C@H](O)[C@@]2(C)[C@@H]4CC[C@H]5C(C)(C)[C@@H](O[C@@H]6OC[C@@H](O)[C@H](O)[C@H]6O)CC[C@@]56C[C@@]46CC[C@]2(C)[C@@H]13,Potency,[1],"inconclusive: 38.1 µM [activator, single point]"
O=C(O)CCCCCCCCCCC(=O)O,Potency,[12],active: 1 nM
C1CNCCN1,Potency,[12],"inconclusive: 70600 nM [inhibitor, single point]"
same,activation,[3],inconclusive: 22.7%
same,Potency,[6],"inconclusive: 61.1 µM [rising, single point]"
CN1C[C@H]2c3ccccc3Oc3ccc(Cl)cc3[C@@H]2C1,Potency,[1],"inconclusive: 29.8 µM [activator, partial curve, poor fit]"
CC(=O)OCC(=O)[C@@]1(O)[C@H](OC(C)=O)C[C@H]2[C@@H]3CCC4=CC(=O)C=C[C@]4(C)[C@@]3(F)[C@@H](O)C[C@@]21C,Potency,[12],inactive
same,Potency,[10],inactive
